# Source: PubChem BioAssay (Tox21)
# Where “and” joins values, the source holds several entries; their conditions need not be identical. Equal values may be shown once. Inconclusive means that the source gave no clear call. Such entries were picked first, then a sample of the others. For some of these results: A potency beside an inconclusive call is a rough fit, not a confirmed value. Calls of active or inactive are those of the source. Unless noted, calls come from the whole dose curve; as a rule, active = well fitted curve in the direction sought with a large enough effect in the repeat runs; inconclusive = weak or mixed curves; inactive = no such curve, though single readings can be large; an effect the other way counts as inactive or inconclusive.
# Legend:
# [1] = target: Peroxisome proliferator-activated receptor gamma (Homo sapiens) (UniProt P37231); assay: qHTS assay to identify small molecule agonists of the peroxisome proliferator-activated receptor gamma (PPARg) signaling pathway (AID 743094; active = well fitted activation curve with a large enough effect in the signal ratio in the repeat runs, not every such curve was filed as active; inconclusive = weak or mixed curves, or effect the other way; inactive = no such curve, though single readings can be large or run the other way; the % refers to the signal ratio; for activation: % is set by controls: 0 for no effect and ±100 for the full control effect); details: HEK293H PPARg-UAS-bla, beta-lactamase FRET ratio, 17 h; activation: at 57 µM (top of the series) unless noted
# UniProt P37231, sequence (P37231 whole entry, looked up): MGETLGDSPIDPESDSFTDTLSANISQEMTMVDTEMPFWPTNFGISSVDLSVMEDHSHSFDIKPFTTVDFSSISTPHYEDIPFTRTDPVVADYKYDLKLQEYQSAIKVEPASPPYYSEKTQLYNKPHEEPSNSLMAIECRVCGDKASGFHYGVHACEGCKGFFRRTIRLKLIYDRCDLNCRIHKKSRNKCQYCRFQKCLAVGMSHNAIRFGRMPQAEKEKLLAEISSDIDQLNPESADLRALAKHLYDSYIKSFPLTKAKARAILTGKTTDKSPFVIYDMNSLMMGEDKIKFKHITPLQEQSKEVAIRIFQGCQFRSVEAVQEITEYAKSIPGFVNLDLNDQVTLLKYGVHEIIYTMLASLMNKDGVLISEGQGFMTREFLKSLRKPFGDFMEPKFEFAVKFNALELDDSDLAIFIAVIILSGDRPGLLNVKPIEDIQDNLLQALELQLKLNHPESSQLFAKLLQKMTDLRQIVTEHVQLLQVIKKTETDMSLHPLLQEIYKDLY
# Outline: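 Compounds dissolved in DMSO were added to PPARg UAS-bla HEK293H cells for 17 h at 37C, and reporter expression was quantified by fluorescence intensity after 1 h with LiveBLAzer B/G FRET substrate.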
# [2] = target: Peroxisome proliferator-activated receptor gamma (Homo sapiens) (UniProt P37231); assay: qHTS assay to identify small molecule antagonists of the peroxisome proliferator-activated receptor gamma (PPARg) signaling pathway (AID 743191; calls by dose curve; note: nearly all actives have a fitted effect of over 30% in size; for ratio activity, negative = inhibition: % is set by controls: 0 for no effect and ±100 for the full control effect); details: HEK293H PPARg-UAS-bla, beta-lactamase ratio, antagonist, 17 h; ratio activity, negative = inhibition: at 62.6 µM (top of the series) unless noted
# Outline: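 GeneBLAzer PPARg UAS-bla HEK293H cells carrying a UAS-driven beta-lactamase reporter were plated at 3000 cells/well, preincubated 5 h at 37C, then given compound for 17 h at 37C; LiveBLAzer B/G FRET substrate was read after 1 h at room temperature.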
# [3] = qHTS assay for small molecule agonists of the antioxidant response element (ARE) signaling pathway - cell viability counter screen (AID 743203; calls by dose curve; note: nearly all actives have a fitted effect of over 55% in size); details: ARE-bla HepG2 viability, CellTiter-Glo luminescence, 16 h; viability change, negative = cytotoxic: at 73.3 µM (top of the series)
# Outline: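 Following 16 hrs of compound treatment at 37C, HepG2 cells with an ARE-controlled beta-lactamase gene were lysed with CellTiter-Glo. Luminescence was read after 30 min at room temperature.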
# [4] = qHTS assay for small molecule activators of the heat shock response signaling pathway - cell viability counter screen (AID 743209); details: HSE-bla HeLa viability, CellTiter-Glo luminescence, 5 h; activity change, negative = cytotoxicity: at 62.6 µM (top of the series) unless noted; note: nearly all actives have a fitted effect of over 50% in size
# Outline: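 Readout: CellTiter-Glo luminescence, 30 min at room temperature. System: HSE-bla HeLa cells, 1500/well, plated overnight. Treatment: compounds in DMSO, 5 h at 37 C.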
# [5] = qHTS assay for small molecule activators of the heat shock response signaling pathway (AID 743210; active = well fitted activation curve with a large enough effect in the signal ratio in the repeat runs, with a control signal flat, not every such curve was filed as active; inconclusive = weak or mixed curves; the % refers to the signal ratio); details: HeLa HSE-bla reporter, beta-lactamase ratio, 5 h; activation: at 62.6 µM (top of the series)
# Outline: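 HSE-bla HeLa cells (beta-lactamase reporter under heat shock response elements) were exposed to compounds for 5 h at 37 C, then loaded with LiveBLAzer B/G FRET substrate for 2.5 h at room temperature before fluorescence reading.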
# [6] = qHTS assay to identify small molecule agonists of the peroxisome proliferator-activated receptor delta (PPARd) signaling pathway - cell viability counter screen (AID 743211); details: PPARd-bla HEK293H viability, CellTiter-Glo luminescence, 17 h; activity change, negative = cytotoxicity: at 62.6 µM (top of the series); note: nearly all actives have a fitted effect of over 55% in size
# Outline: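 Following 5 h plating at 37 C and 5% CO2, PPARd UAS-bla HEK293H cells took up test compounds for 17 h. Viability was quantified by luminescence 30 min after CellTiter-Glo addition at room temperature.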
# [7] = qHTS assay to identify small molecule antagonists of the peroxisome proliferator-activated receptor delta (PPARd) signaling pathway - cell viability counter screen (AID 743213); details: PPARd-bla HEK293H viability, CellTiter-Glo luminescence, 17 h; viability change, negative = cytotoxic: at 62 µM (top of the series) unless noted; note: nearly all actives have a fitted effect of over 50% in size
# Outline: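 Cytotoxicity counter screen: CellTiter-Glo luminescence read 30 min after addition, in the same wells as the reporter assay. There, PPARd UAS-bla HEK293H cells (3000/well) were treated 17 h at 37 C with compound and 300 nM L165041.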
# [8] = target: Bile acid receptor (Homo sapiens) (UniProt Q96RI1); assay: qHTS assay to identify small molecule antagonists of the farnesoid-X-receptor (FXR) signaling pathway (AID 743217; active = well fitted inhibition curve with a large enough effect in the signal ratio in the repeat runs, not every such curve was filed as active; inconclusive = weak or mixed curves, or effect the other way; inactive = no such curve, though single readings can be large or run the other way; the % refers to the signal ratio); details: HEK293T FXR-UAS-bla, beta-lactamase ratio, CDCA-stimulated, 16 h; activity change, negative = inhibition: at 62.6 µM (top of the series) unless noted
# UniProt Q96RI1, sequence (Q96RI1 whole entry, looked up): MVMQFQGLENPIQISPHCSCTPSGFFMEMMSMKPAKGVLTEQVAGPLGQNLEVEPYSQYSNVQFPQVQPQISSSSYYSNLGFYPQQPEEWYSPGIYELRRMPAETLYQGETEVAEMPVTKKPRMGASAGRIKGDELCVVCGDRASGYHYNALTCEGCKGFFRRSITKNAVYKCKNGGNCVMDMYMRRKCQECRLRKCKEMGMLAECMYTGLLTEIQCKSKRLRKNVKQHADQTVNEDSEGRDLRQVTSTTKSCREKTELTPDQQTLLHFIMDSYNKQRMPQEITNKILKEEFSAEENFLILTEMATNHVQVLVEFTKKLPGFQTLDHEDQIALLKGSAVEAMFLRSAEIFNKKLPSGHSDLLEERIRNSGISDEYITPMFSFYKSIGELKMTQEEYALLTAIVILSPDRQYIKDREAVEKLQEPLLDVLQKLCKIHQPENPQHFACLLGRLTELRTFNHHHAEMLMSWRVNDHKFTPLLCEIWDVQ
# Outline: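 GeneBLAzer FXR-UAS-bla HEK 293T, CDCA-stimulated (50 uM final). Compound treatment 16 h, 37 °C. Detection: beta-lactamase cleavage of B/G FRET substrate, fluorescence.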
# [9] = qHTS assay to identify small molecule agonists of the farnesoid-X-receptor (FXR) signaling pathway - cell viability counter screen (AID 743218); details: FXR-bla HEK293T viability, CellTiter-Glo luminescence, 16 h; viability change, negative = cytotoxic: at 62.6 µM (top of the series) unless noted; note: nearly all actives have a fitted effect of over 45% in size
# Outline: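 Parallel cytotoxicity test: compound-treated (16 h, 37 C) HEK 293T FXR-bla reporter cells were lysed with CellTiter-Glo and luminescence recorded.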
# [10] = target: Bile acid receptor (Homo sapiens) (UniProt Q96RI1); assay: qHTS assay to identify small molecule agonists of the farnesoid-X-receptor (FXR) signaling pathway (AID 743220; active = well fitted activation curve with a large enough effect in the signal ratio in the repeat runs, not every such curve was filed as active; inconclusive = weak or mixed curves, or effect the other way; the % refers to the signal ratio); details: HEK293T FXR-UAS-bla, beta-lactamase FRET ratio, 16 h; activation: at 62.6 µM (top of the series) unless noted
# Outline: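 Beta-lactamase reporter under UAS control in GeneBLAzer FXR HEK 293T cells (5000/well) measured with LiveBLAzer FRET substrate after 2 h at room temperature. Compound exposure lasted 16 h at 37C.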
# [11] = qHTS assay to identify small molecule antagonists of the vitamin D receptor (VDR) signaling pathway - cell viability counter screen (AID 743225); details: VDR-bla HEK293T viability, CellTiter-Glo luminescence, 16 h; viability change, negative = cytotoxic: at 61 µM (top of the series) unless noted; note: nearly all actives have a fitted effect of over 50% in size
# Outline: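 In this counter screen, VDR-bla HEK 293T cells receive test compound plus 3 nM final calcitriol for 16 h at 37C. Room-temperature steps of 2 h with the beta-lactamase substrate, then 30 min with CellTiter-Glo, precede the luminescence read.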
# [12] = qHTS assay to identify small molecule antagonists of the peroxisome proliferator-activated receptor gamma (PPARg) signaling pathway - cell viability counter screen (AID 743194); details: PPARg-bla HEK293H viability, CellTiter-Glo luminescence, 17 h, co-treated with 50 nM rosiglitazone; activity change, negative = cytotoxicity: at 62.6 µM (top of the series) unless noted; note: nearly all actives have a fitted effect of over 55% in size; for activity change, negative = cytotoxicity: % is set by controls: 0 for no effect and ±100 for the full control effect
# Outline: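 PPARg-UAS-bla HEK293H cells were plated, rested 5 h at 37 C, then treated with compounds plus rosiglitazone (50 nM final) for 17 h at 37 C; viability was then read by CellTiter-Glo luminescence after 30 min at room temperature.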
# [13] = qHTS assay for small molecule agonists of the antioxidant response element (ARE) signaling pathway (AID 743202; active = well fitted activation curve with a large enough effect in the signal ratio in the repeat runs, not every such curve was filed as active; inconclusive = weak or mixed curves, or effect the other way; inactive = no such curve, though single readings can be large or run the other way; the % refers to the signal ratio; for activation: % is set by controls: 0 for no effect and ±100 for the full control effect); details: HepG2 ARE-bla reporter, beta-lactamase FRET, 16 h; activation: at 73.3 µM (top of the series) unless noted
# Outline: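 Read-out: LiveBLAzer B/G FRET substrate fluorescence after 2 h at room temperature, following 16 h compound treatment at 37 C of HepG2 cells carrying an ARE-driven beta-lactamase reporter.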
# [14] = target: Peroxisome proliferator-activated receptor delta (Homo sapiens) (UniProt Q03181); assay: qHTS assay to identify small molecule agonists of the peroxisome proliferator-activated receptor delta (PPARd) signaling pathway (AID 743212; calls by dose curve); details: HEK293H PPARd-UAS-bla, beta-lactamase FRET ratio, 17 h; activation: at 62.6 µM (top of the series) unless noted
# UniProt Q03181, sequence (Q03181 whole entry, looked up): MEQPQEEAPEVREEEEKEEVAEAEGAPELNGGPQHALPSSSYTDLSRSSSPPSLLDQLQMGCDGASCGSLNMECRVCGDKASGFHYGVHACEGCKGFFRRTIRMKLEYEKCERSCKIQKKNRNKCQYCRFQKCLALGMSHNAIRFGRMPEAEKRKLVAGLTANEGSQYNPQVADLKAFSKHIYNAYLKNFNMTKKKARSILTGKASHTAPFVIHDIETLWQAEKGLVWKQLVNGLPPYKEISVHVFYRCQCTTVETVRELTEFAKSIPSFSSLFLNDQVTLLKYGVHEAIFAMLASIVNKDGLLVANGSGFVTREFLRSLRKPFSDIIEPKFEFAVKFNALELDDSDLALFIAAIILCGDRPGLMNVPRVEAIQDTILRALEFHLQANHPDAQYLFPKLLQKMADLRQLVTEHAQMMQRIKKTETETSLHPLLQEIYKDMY
# Outline: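 GeneBLAzer PPARd UAS-bla HEK293H cells (beta-lactamase reporter under UAS control), plated and rested 5 h at 37 C, then exposed to compounds in DMSO at 37 C; LiveBLAzer B/G FRET substrate added, 2 h room temperature, fluorescence read.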
# [15] = target: Peroxisome proliferator-activated receptor delta (Homo sapiens) (UniProt Q03181); assay: qHTS assay to identify small molecule antagonists of the peroxisome proliferator-activated receptor delta (PPARd) signaling pathway (AID 743215; active = well fitted inhibition curve with a large enough effect in the signal ratio in the repeat runs, not every such curve was filed as active; inconclusive = weak or mixed curves, or effect the other way; inactive = no such curve, though single readings can be large or run the other way; the % refers to the signal ratio;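 note: cells stimulated with agonist L165041 at 300 nM final during compound exposure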); details: HEK293H PPARd-UAS-bla, beta-lactamase FRET ratio, antagonist, 17 h; ratio activity, negative = inhibition: at 62 µM (top of the series) unless noted
# Outline: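 HEK293H UAS-bla, PPARd; agonist L165041 300 nM final with cpd in DMSO; 37 C 17 h; FRET substrate, RT 2 h; fluorescence intensity.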
# [16] = qHTS assay to identify small molecule antagonists of the farnesoid-X-receptor (FXR) signaling pathway - cell viability counter screen (AID 743221; active = well fitted cell-killing curve with a large enough effect in the repeat runs, not every such curve was filed as active; inconclusive = weak or mixed curves, or effect the other way; inactive = no such curve, though single readings can be large or run the other way; note: nearly all actives have a fitted effect of over 50% in size); details: FXR-bla HEK293T viability, CellTiter-Glo luminescence, 16 h; activity change, negative = cytotoxicity: at 62.6 µM (top of the series)
# Outline: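 Compound effects on cell number were measured as CellTiter-Glo luminescence in HEK 293T cells expressing FXR-UAS-bla, after 16 h at 37 C with 50 uM CDCA (final).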
# [17] = target: Vitamin D3 receptor (Homo sapiens) (UniProt P11473); assay: qHTS assay to identify small molecule agonists of the vitamin D receptor (VDR) signaling pathway (AID 743222; calls by dose curve); details: HEK293T VDR-UAS-bla, beta-lactamase FRET ratio, 16 h; activation: at 63.5 µM (top of the series) unless noted
# UniProt P11473, sequence (P11473 whole entry, looked up): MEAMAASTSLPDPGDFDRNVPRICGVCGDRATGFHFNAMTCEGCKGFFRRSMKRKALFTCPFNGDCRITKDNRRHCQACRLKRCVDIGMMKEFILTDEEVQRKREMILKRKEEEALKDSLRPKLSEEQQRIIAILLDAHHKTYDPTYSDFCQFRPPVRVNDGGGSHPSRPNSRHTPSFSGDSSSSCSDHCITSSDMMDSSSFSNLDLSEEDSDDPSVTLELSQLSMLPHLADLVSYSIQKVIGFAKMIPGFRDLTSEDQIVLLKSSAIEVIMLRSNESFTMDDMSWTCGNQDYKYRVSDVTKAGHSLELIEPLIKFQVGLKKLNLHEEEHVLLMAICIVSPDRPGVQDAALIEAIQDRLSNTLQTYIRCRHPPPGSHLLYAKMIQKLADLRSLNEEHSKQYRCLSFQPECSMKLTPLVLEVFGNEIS
# Outline: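 In VDR-bla cells, compound-induced beta-lactamase expression is quantified by FRET substrate fluorescence. Treatment lasts 16 h at 37C; substrate develops 2 h at room temperature.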
# [18] = target: Vitamin D3 receptor (Homo sapiens) (UniProt P11473); assay: qHTS assay to identify small molecule antagonists of the vitamin D receptor (VDR) signaling pathway (AID 743223; active = well fitted inhibition curve with a large enough effect in the signal ratio in the repeat runs, not every such curve was filed as active; inconclusive = weak or mixed curves, or effect the other way; inactive = no such curve, though single readings can be large or run the other way; the % refers to the signal ratio); details: VDR-UAS-bla HEK293T, beta-lactamase FRET ratio, 16 h; activity change, negative = inhibition: at 61 µM (top of the series) unless noted
# Outline: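 Beta-lactamase activity in VDR-bla cells is measured by FRET substrate fluorescence (2 h, room temperature) after cells spend 16 h at 37C with test compound and 3 nM final 1alpha,25-dihydroxyvitamin D3.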
# [19] = qHTS assay to identify small molecule agonists of the vitamin D receptor (VDR) signaling pathway - cell viability counter screen (AID 743224); details: VDR-bla HEK293T viability, CellTiter-Glo luminescence, 16 h; activity change, negative = cytotoxicity: at 62.6 µM (top of the series) unless noted; note: nearly all actives have a fitted effect of over 50% in size
# Outline: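 Plated VDR-bla cells (4 h, 37C) received compound, incubated 16 h, then LiveBLAzer substrate 2 h RT; CellTiter-Glo added afterwards, luminescence read at 30 min.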
# Potency is the fitted concentration of half-maximal effect; tags give direction and shape of the fitted curve or compound fluorescence and quenching.
compound,measurement,setting,value
O=C(Nc1ccc([N+](=O)[O-])cc1Cl)c1cc(Cl)ccc1O,Potency,[1],"inconclusive: 549 nM [fluorescent, full curve]"
same,activation,[1],inconclusive: -3.4%
same,Potency,[2],"inconclusive: 1.38 µM [fluorescent, full curve] and inconclusive: 1.64 µM [activator]"
same,Potency,[3],"inconclusive: 1.37 µM [cytotoxic, full curve] and inconclusive: 651 nM [cytotoxic, full curve]"
same,Potency,[4],"active: 309 nM and inconclusive: 651 nM [cytotoxic, full curve]"
same,Potency,[5],inconclusive: 2.03 µM and inconclusive: 1.94 µM
same,Potency,[6],active: 219 nM and active: 259 nM
same,Potency,[7],"inconclusive: 27.5 nM [cytotoxic, full curve, poor fit] and active: 1.64 µM"
same,Potency,[8],"inconclusive: 4.9 µM [rising, partial curve] and inconclusive: 4.61 µM [rising, partial curve]"
same,Potency,[9],active: 1.38 µM and active: 1.16 µM
same,Potency,[10],"inconclusive: 1.74 µM [rising, full curve, poor fit]"
same,Potency,[11],"inconclusive: 436 nM [cytotoxic, full curve] and inconclusive: 18.5 µM [cytotoxic, single point]"
Nc1nc(N)c2nc(-c3ccccc3)c(N)nc2n1,Potency,[1],"active: 23.9 µM and inconclusive: 17.6 µM [fluorescent, full curve, poor fit] and inconclusive: 43.6 µM [fluorescent]"
same,Potency,[2],"inconclusive: 19.7 µM [fluorescent, partial curve] and inconclusive: 27.5 µM [activator, partial curve, poor fit] and inconclusive: 13.3 µM [activator, partial curve]"
same,Potency,[12],"inconclusive: 2.66 µM [rising, full curve, poor fit]"
same,Potency,[13],active: 31 µM and active: 30.6 µM and active: 23.7 µM
same,Potency,[3],"inconclusive: 13.3 µM [cytotoxic, full curve, poor fit]"
same,Potency,[6],"inconclusive: 55.6 µM [cytotoxic, partial curve, poor fit] and inconclusive: 49 µM [cytotoxic, partial curve, poor fit]"
same,Potency,[14],active: 24.5 µM and active: 23.7 µM
same,Potency,[7],"inconclusive: 35.1 µM [cytotoxic, partial curve]"
same,Potency,[15],"inconclusive: 140 nM [fluorescent, full curve, poor fit] and inconclusive: 21.9 µM [activator] and inconclusive: 26.6 µM [activator, partial curve]"
same,Potency,[8],"inconclusive: 44.1 µM [activator] and inconclusive: 38.9 µM [fluorescent, partial curve, poor fit] and inconclusive: 23.7 µM [activator]"
same,Potency,[9],"inconclusive: 19.5 µM [cytotoxic, single point]"
same,Potency,[16],"inconclusive: 44.1 µM [falling, single point]"
same,Potency,[17],"inconclusive: 55.6 µM [fluorescent] and inconclusive: 30.9 µM [fluorescent, partial curve] and inconclusive: 21.1 µM [fluorescent, partial curve]"
same,Potency,[18],"inconclusive: 19.7 µM [fluorescent, full curve] and inconclusive: 24.5 µM [fluorescent] and inconclusive: 23.9 µM [activator, partial curve]"
same,Potency,[19],"inconclusive: 55.6 µM [cytotoxic, partial curve, poor fit]"
same,Potency,[11],"inconclusive: 55.6 µM [cytotoxic, single point]"
COc1cc([C@@H]2c3cc4c(cc3[C@H](O)[C@H]3COC(=O)[C@H]23)OCO4)cc(OC)c1OC,activation,[1],inconclusive: -6.23% and inconclusive: -15.2%
same,Potency,[2],inactive
same,Potency,[12],inactive
same,Potency,[13],"inconclusive: 119 nM [rising, full curve]"
same,activation,[13],inconclusive: 12.9%
same,Potency,[4],"inconclusive: 21.1 nM [cytotoxic, full curve, poor fit]"
same,Potency,[6],"inconclusive: 30.9 nM [cytotoxic, full curve]"
same,Potency,[7],"inconclusive: 8.7 nM [cytotoxic, full curve] and inconclusive: 237 nM [cytotoxic, single point]"
same,"activity change, negative = inhibition",[18],inconclusive: -13.4% and inconclusive: -18.9%
same,Potency,[19],"inconclusive: 0.006 µM [cytotoxic, full curve]"
O=C(Nc1ccccc1)c1cc(Cl)ccc1O,Potency,[1],"inconclusive: 34700 nM [fluorescent, partial curve]"
same,Potency,[2],"inconclusive: 21.9 µM [activator, single point]"
same,Potency,[12],active: 6.92 µM
same,Potency,[13],"inconclusive: 3060 nM [rising, partial curve]"
same,Potency,[3],"inconclusive: 13.7 µM [cytotoxic, full curve]"
same,Potency,[4],"inconclusive: 21900 nM [cytotoxic, partial curve]"
same,Potency,[5],"inconclusive: 21.9 µM [falling, partial curve, poor fit]"
same,Potency,[6],"inconclusive: 21900 nM [cytotoxic, partial curve]"
same,Potency,[7],"inconclusive: 27.5 µM [cytotoxic, partial curve]"
same,Potency,[8],"inconclusive: 1.95 µM [rising, full curve, poor fit]"
same,Potency,[9],active: 38.9 µM
same,Potency,[16],"inconclusive: 34.7 µM [falling, partial curve]"
same,"activity change, negative = inhibition",[18],inconclusive: -1.82%
same,Potency,[11],active: 12.3 µM
